Laboratory results reported in the supplement of paper PMC3334620.
The full ranking holds about 33,000 sequences; the median of “E-score (-0.5 to 0.5)” is about -0.016, and the highest 2% start at about 0.31. The list shows a part of the results.

What follows are sequences tested against Cst6 (UniProt P40535) (assay: PBM E-score (8-mer binding enrichment) (E-score (-0.5 to 0.5)); higher = stronger / more preferred TF binding; most listed sequences are background and not binding sites). Conditions: protein concentration: 200 nM; construct: GST-DNA-binding domain.
Outline: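 Full-length yeast transcription factors or their DNA-binding domains, GST-tagged and expressed with PURExpress, were applied at about 100-200 nM to universal all-10-mer Agilent arrays. These arrays had been made double-stranded by primer extension on fresh or once-stripped slides. Detection used fluorescent anti-GST, normalisation used masliner, and E-scores for ungapped eight-base words pooled with reverse complements came from the Universal PBM Analysis Suite.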

Sequence	PBM E-score
AAGACGTC	0.28
AGATGACG	0.473
AGAGCGAC	-0.119
AAAAACGC	0.172
AACTGTCA	0.12
ACCTGCAG	-0.175
AGTTGCGA	0.0793
CATCTCGC	0.0148
AGCTAGTC	-0.00466
CCCTCGAG	-0.162
ACCCTTGA	-0.0553
ACAATGCG	0.107
ACAGTGTA	-0.0349
GAGTTGCC	-0.0921
ACCTAAGC	0.0311
CGGATACC	-0.138
AGATCAGA	-0.0434
CGTTCTCC	-0.174
AGTAGGAC	-0.136
TGCCACCA	-0.204
ACGTTAAG	0.0326
ACTGATAG	0.00116
AGAAGCAC	-0.0555
ATCTAACG	0.101
GGTGCTCA	-0.188

Sequence	PBM E-score
CGGACCGC	-0.191
AATCTAGA	-0.0962
AGCCGTAC	0.197
CGAGCATC	-0.152
AGAACGAA	0.162
AGCCGACT	-0.232
TCTGGGCA	-0.164
ACAAACAG	0.108
GATAAGAA	0.291
TGAAGACA	0.0428
CGCGCCGA	0.137
CCCGGCCA	-0.315
CAACTAAG	0.0901
GCTGCGCC	-0.151
TTACGTAA	0.493
AGCCCTTC	-0.221
CAGCTGCA	-0.0829
CAAGTCTC	-0.247
ACGTCCAC	0.179
GAACCAAA	-0.0818
AGCATAAA	0.167
AAAGGTAT	0.0448
AGCAGTCG	-0.277
AGCCACCC	-0.295
ACCGAAAT	0.0886

Sequence	PBM E-score
ACGGGAAC	-0.14
AGAAGGAA	-0.175
AGCGTTAA	-0.0501
ACGTGTTA	0.224
AGATAGCA	-0.0144
CTAGGCGA	-0.118
GACTTTAC	-0.0308
ATTGTTCA	0.123
CTGTTTGC	0.0855
CTACATGA	-0.0181
CGATTGAA	0.0857
AGGCCACG	-0.134
TAGCGCGA	0.0472
CGATAGTA	0.0397
TACTATCA	0.11
ACCCGCGT	0.079
GTTTCGCA	-0.0982
CATATACC	-0.0904
GGGGCAGA	-0.0899
ATCAGAGA	-0.00176
CATTCTAA	0.173
AATCACTC	-0.0124
ACGCACCA	0.0811
ACTAAGCA	0.0715
CCTGCTGC	-0.182

Sequence	PBM E-score
GAAGTGTC	0.0547
ACTGAGTG	-0.0254
AGGTTTCA	0.00548
TAATCCAA	0.106
CCCCAAAC	-0.117
CCCTCTCA	-0.404
ACTCGAAG	0.00137
CCCGAGTA	-0.0333
ACCCCCAT	-0.311
ATATGTCC	0.121
CTTCCTAA	-0.0563
CCGCACTA	0.00317
CCGAACCC	-0.31
CGTGGGAG	-0.214
CGCTCGCA	-0.11
AAAACAGA	0.199
ACTCTGTC	0.0818
GCCACGAA	-0.0633
ATACTTTC	0.0214
CTTGATAA	0.0832
GTCAGCAC	0.0528
AGCCAGAT	-0.0349
GGAACTAA	-0.0367
AATTACGC	0.331
CTGACGGC	0.111

Sequence	PBM E-score
ATCACAGA	0.12
AGGCAAAA	0.16
TATACAAA	0.186
GTCGACAA	0.00675
CCAATGAG	-0.152
AGCTGTCG	-0.183
ACAAGTTC	-0.0239
ACCGAGAG	-0.132
AACGGACC	-0.151
CCGAAGAG	-0.146
GGGCGTGA	0.0604
GCCGCTTA	0.221
ACCAGATC	0.034
CATGACCA	0.0978
ATAATCAT	0.344
CCCGTGCG	0.0646
GGCTAGCA	-0.12
AACTTAAT	0.208
ACATAGTA	0.279
AACATATG	0.071
AGGGTAAA	0.0206
CCAATCAA	-0.0938
CTATGCGA	-0.126
CCTTGAGA	-0.204
AAGGAAAA	0.103

Sequence	PBM E-score
CCAGTATC	-0.209
AAGGCGGC	0.177
AGGGCAAT	-0.0329
ACAACGCG	0.102
GAGTGTAA	-0.0945
AGGGAACC	-0.105
CGATCCTA	-0.268
GAGCTCGC	-0.0933
CACGGTTC	-0.09
CCGAATTA	0.0149
AAGCACCC	-0.155
AGAACAGG	-0.0954
CATAATCC	-0.0642
TTGTTAAA	0.016
GCGCAGTA	0.037
GATCGTCC	-0.119
ACTACGTC	0.157
ATATCTTC	0.119
GAATGGGA	-0.236
CTTGCCCC	-0.281
ACATCTGC	-0.0513
GGTGTCGA	-0.157
CTGAGGAC	-0.204
ATCGAACG	0.219
AAATATGA	0.239

Sequence	PBM E-score
ATGACGCC	0.442
ACCTACCT	-0.0974
CCCGCAAC	0.0414
TAGATGAA	0.164
ACGCTAGT	-0.0155
CGGTGGCC	-0.239
AAAAACTG	-0.0947
CGGCAGGA	-0.208
GAGGCTAA	-0.0618
CAACCTCA	-0.0324
CGGAAGAA	0.15
CTACTGCC	-0.203
GCCCTTGA	-0.109
TACGAACA	0.153
AAGCCTCT	-0.163
AAGGTGAG	-0.137
AAGCTGCA	-0.00698
CAAATTGA	-0.0866
GAGTTACC	-0.0903
ACGGTTCA	-0.153
ACGGGCTC	-0.353
AGGCACAA	0.0553
AGAGATCT	-0.106
GAACCGTC	-0.0582
CAGAGCTC	-0.304

Sequence	PBM E-score
GCGCGACA	0.132
GCACCAAC	-0.16
CCCCACTA	-0.239
CAGCATAC	0.11
GAGGTGCC	0.0133
GGGAATGA	0.234
GCCACTTA	0.0597
ATCTATTG	0.169
TACGACTA	-0.023
AGACGCGG	0.0192
GATTGTAA	0.129
AAACGGAG	-0.00734
CAACTTAG	0.107
CTGTTATA	0.221
ACGACGAG	-0.211
AAGCTATT	0.0317
AACAAACA	0.199
GCCAACGA	-0.176
AAATTTAG	0.144
CCGGAGCG	-0.0828
CAACGGGC	-0.0486
CCTGCGTC	-0.127
GATGTTCA	-0.0673
GACGGTCC	-0.359
ACAAGTTG	-0.0486

Sequence	PBM E-score
GGTAAGCA	-0.116
ACGGGTTG	-0.154
ATGGGCGC	-0.0682
TCTGTTAA	0.0556
AAACCCCT	-0.297
ATTAGAAC	0.158
ACATGAGA	0.0628
AGCACGCA	-0.189
ACTACGCT	-0.0196
TGCATCCA	-0.0788
TCAGGGCA	-0.0741
CTACGCCA	-0.0436
CCGAAGTC	-0.129
GCACACCC	-0.192
ACCATTCG	-0.138
CGTAAGTC	0.171
ATTGCAAA	0.0862
CGTTAATA	0.0725
ATTAAGTA	0.0699
